# Experimental data taken from PubChem BioAssay AID504832 (National Center for Advancing Translational Sciences (NCATS), 2011).
# Out of some 310,000 compounds screened, about 18,000 (5.8%) were called active. Inconclusive results, whose numbers are uncertain, are shown with a selection of clear calls. The call rests on the fitted dose curve; in most records, active means well fitted inhibition curve with a large enough effect; inconclusive means small, poorly fitted or top-dose-only effect, or another doubt; inactive means no such curve, though single readings can be large or run the other way. No potency is given beside an inconclusive call; the fits are too rough.
# Assay: Primary qHTS for delayed death inhibitors of the malarial parasite plastid, 48 hour incubation
# Conditions: P. falciparum luciferase growth in erythrocytes; series mostly up to 28.7 µM; activity change, negative = inhibition: at the top concentration
# Summary of the method: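 Luciferase-expressing parasites in RBCs, 2% Hct / 0.1% parasitemia final; RPMI 1640 + 0.5% Albumax; 37 C, 5% CO2, one generation; luminescence read-out, lower signal = inhibition.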
# On the % scale 0 is the no-effect control and ±100 the full control effect; potency means the concentration at half of the fitted maximal effect; tags describe the fitted curve by direction and shape.
SMILES,Potency,"activity change, negative = inhibition"
COc1ccc(C)cc1S(=O)(=O)Nc1cccc(-c2cn3cccnc3n2)c1,"inconclusive [inhibitor, single point]",–
CN(C)C(CNC(=O)Cc1cccc(C(F)(F)F)c1)c1ccccc1 (configuration not stated),"inconclusive [inhibitor, single point]",–
CC1CCCN(c2ccc([N+](=O)[O-])cc2C(=O)c2ccccc2)C1 (configuration not stated),"inconclusive [inhibitor, single point]",–
CCC(Sc1ccc2nnc(-c3ccc(F)cc3)n2n1)C(=O)OC (configuration not stated),"inconclusive [inhibitor, single point]",–
Cc1ccc(-c2nc(CN3CCCCC3c3cccc(F)c3)c(C)o2)o1 (configuration not stated),"inconclusive [inhibitor, partial curve]",–
CCN(CC)c1ccc2cc(C(N)=O)c(=O)oc2c1,–,inactive: 109%
CN(CC(=O)Nc1ccc(Cl)cc1)C(=O)c1ccc(-n2cncn2)c([N+](=O)[O-])c1,"inconclusive [inhibitor, single point]",–
CN(c1ccccc1)c1ccc(/C=C(\C#N)c2nnc3n2CCCCC3)cc1[N+](=O)[O-],"inconclusive [inhibitor, single point]",–
Cc1ccc(C)c(C(=O)COC(=O)Cn2[nH]c(=O)c3ccccc3c2=O)c1,"inconclusive [inhibitor, single point]",–
COc1ccc(C)cc1S(=O)(=O)N(C)CC(=O)NCc1ccccn1,–,inactive: -4.43%
CC(C(=O)c1ccc(-c2ccccc2)cc1)[n+]1cccc(NC(=O)c2ccccc2)c1 (configuration not stated),"inconclusive [inhibitor, single point]",–
CCC(C(=O)NCc1ccc(F)cc1)N(CCc1ccccc1)C(=O)c1snc(C(N)=O)c1N (configuration not stated),"inconclusive [inhibitor, single point]",–
Cc1cccc(S(=O)(=O)C(C#N)c2nc3ccccc3nc2N2CC(C)OC(C)C2)c1 (configuration not stated),"inconclusive [inhibitor, single point]",–
COc1ccc(N(CC(=O)Nc2cc(Cl)ccc2OC)C2=NC3CS(=O)(=O)CC3S2)cc1 (configuration not stated),–,inactive: -18.4%
CCCC(=O)Nc1cccc(NC(=O)c2ccc(C)c([N+](=O)[O-])c2)c1,–,inactive: 31.5%
Cc1ccccc1OCCC(=O)Nc1cc(S(=O)(=O)N2CCOCC2)ccc1OC(C)C,active: 14.7 µM,–
CCOc1ccccc1N1CC(C(=O)N2CCc3ccccc32)CC1=O (configuration not stated),–,inactive: 22.9%
CCCC(=O)NC(=S)NNC(=O)c1ccc([N+](=O)[O-])cc1,"inconclusive [inhibitor, single point]",–
COC(=O)c1cc(-c2ccc(NC(C)=O)cc2)nc2ccccc12,–,inactive: 7.38%
Cc1ccc(CSc2nccc(-c3c(C)nc4ccccn34)n2)cc1,active: 13.1 µM,–
O=C(c1cc(Sc2cccc(Cl)c2)nc2ccccc12)N1CCN(c2ccccn2)CC1,"inconclusive [inhibitor, single point]",–

SMILES,Potency,"activity change, negative = inhibition"
O=C(O)c1ccc2c(c1Sc1ccccc1)C(=O)c1ccccc1C2=O,"inconclusive [inhibitor, partial curve, poor fit]",–
S=C(NC1CC1)NC1CCCc2ccccc21 (configuration not stated),–,inactive: -18.7%
COc1ccc2[nH]c(C)c(CCNC(=S)Nc3ccc(F)cc3)c2c1,"inconclusive [inhibitor, single point]",–
c1ccc(-c2csc(=Nc3cccnc3)n2CC2CCCO2)cc1 (configuration not stated),"inconclusive [inhibitor, single point]",–
Cc1ccc(S(=O)(=O)NCC(=O)N(CC(=O)NC2CCCCC2)Cc2ccco2)cc1,"inconclusive [inhibitor, partial curve, poor fit]",–
Cc1ccc(S(=O)(=O)N2CCC(C(=O)N3CCC[C@H]3C(=O)NCC(C)C)CC2)cc1,"inconclusive [inhibitor, single point]",–
CCOc1cc(C2C(C(=O)c3ccco3)=C(O)C(=O)N2CC2CCCO2)ccc1O (configuration not stated),–,inactive: 9.3%
CCC(C(=O)OCC(=O)c1c(N)n(CC(C)C)c(=O)n(C)c1=O)c1ccccc1 (configuration not stated),"inconclusive [inhibitor, partial curve]",–
O=C(c1ccc(Br)o1)N1CCN(c2ccccn2)CC1,–,inactive: -27%
CCOC(=O)CC1COc2ccccc2N1C(=O)c1cccc([N+](=O)[O-])c1 (configuration not stated),–,inactive: 6.11% [at 0.00184 µM]
CNC(=O)c1cc2cc(OC)ccc2n1CCN(Cc1ccccc1)Cc1ccccc1,"inconclusive [inhibitor, single point]",–
CCC(C(=O)NCCCN1CCN(CCCNC(=O)C(CC)c2ccccc2)CC1)c1ccccc1 (configuration not stated),"inconclusive [inhibitor, single point]",–
CCO[C@H]1OC(C(=O)N2CCN(C)CC2)=C[C@@H](c2csc3ccccc23)[C@@H]1CCCO,"inconclusive [inhibitor, single point]",–
CCOc1ccc(C2CC(=O)c3c([nH]c(C(=O)OC)c3C)C2)cc1OC (configuration not stated),"inconclusive [inhibitor, single point]",–
CCOC(=O)N1CCN(CC(=O)Nc2cc(C)nn2-c2nc3ccccc3s2)CC1,"inconclusive [inhibitor, full curve]",–
O=C(O)c1ccc(N2C(=O)/C(=C/c3ccc(-c4ccc([N+](=O)[O-])cc4)o3)C=C2c2ccccc2)cc1,"inconclusive [inhibitor, partial curve, poor fit]",–
CCCN(CCC)CCCNC(=O)c1ccc2c(Cl)c3c(nc2c1)CCC3,"inconclusive [inhibitor, single point]",–
O=C(CCl)N1c2ccccc2SCC1c1ccccc1 (configuration not stated),"inconclusive [inhibitor, single point]",–
CC(C)N1CCC(N2CCN(CCCn3cccn3)CC2CCO)CC1 (configuration not stated),–,inactive: 18.8%
O=C(NCC1CCCO1)C(=O)N/N=C/c1ccc(O)c(Cl)c1 (configuration not stated),–,inactive: -2.08%
N#CCc1ccc(NC(=O)c2ccc(S(=O)(=O)N3CCCC3)cc2)cc1,"inconclusive [inhibitor, partial curve, poor fit]",–
